At least one read-out could not be matched to a standard name with certainty.
Key:
[1] = system: rat colon; assay: Cascade assay, rat colon in vitro; assay type: cell-based; settings: 0.0001 to 100,000 ng, max = PGF2α response
Protocol: (§1) The smooth muscle stimulant effects of the test compounds were determined simultaneously in four different tissues that are known to be reactive to naturally occurring prostaglandins. Segments of rat stomach fundus, rat colon, chick rectum and rabbit aortic strip were obtained as described by: Vane, J. R., Brit. J. Pharmacol., 12: 344 (1957); Regoli, D. and Vane, J. R., Brit. J. Pharmacol., 23: 351 (1964); Mann, M. and West, G. B., Brit. J. Pharmacol., 5: 173 (1950); and Furchgott, R. F. and Bhadrakom, R., J. Pharmacol. Exper. Ther., 108: 129 (1953). One end of each preparation was tied to the bottom of a 10 ml tissue chamber and the other to a force displacement transducer (Grass FT-03) for continuous tension recording. The stomach, colon, and rectum segments were stretched to an initial tension of 1 g, while the aortic strip was subjected to 4 g. All preparations were left undisturbed for 1 hour prior to ptesting. The chambers were equipped with an external jacket through which water, maintained at 40° C., was circulated. Preparations were arranged one beneath the other in descending order (aorta, stomach, colon and rectum). Provision was made for bathing the four tissues successively so that they were superfused with the same fluid (Gaddum, J. H., Brit. J. Pharmacol., 6: 321 [1953]). The bathing fluid consisted of: Krebs bicarbonate solution aerated with a mixture of 95% 02 and 5% CO2 and warmed at 37° C.; atropine sulphate (0.1 mcg/ml, phenoxybenzamine hydrochloride (0.1 mcg/ml), propranolol hydrochloride (3.0 mcb/ml), methysergide maleate (0.2 mcb/ml) and brompheniramine maleate (0.1 mcg/ml) were added to eliminate the possibility of smooth muscle responses being due to stimulation of cholinergic, adrenerigic, serotonin of histamine receptors. The fluid was circulated by means of a roller pump and was allowed to drip over the preparations at a rate of 10 ml/minute.
(§2) Test compounds were diluted from stock solutions so as to administer quantities ranging from 0.0001 to 100,000 ng in a volume of 0.5 ml. The compounds were applied by dripping on the uppermost tissue, at intervals of 10 to 20 minutes. Maximal increases in tension after each dose were measured and the results were used to plot dose-response curves. ED50 data (doses necessary to produce a response 50% of maximum) were then calculated graphically for each tissue. Maximum responses utilized were those elicited by PGE1 in gastric and rectal tissue, by PGF2α in colonic tissue, and by PGA2 in aortic tissue.
(§3) Activity in each tissue was scored according to the following scale: […]

[2] = system: rat stomach; assay: Cascade assay, rat stomach fundus in vitro; assay type: cell-based; settings: 0.0001 to 100,000 ng, max = PGE1 response
Protocol: as §1, §2, §3

[3] = system: chick rectum; assay: Cascade assay, chick rectum in vitro; assay type: cell-based; settings: 0.0001 to 100,000 ng, max = PGE1 response
[4] = system: gastric secretion in the rat; assay: Effects on gastric secretion in the rat; assay type: in vivo; settings: pylorus ligated, s.c. 1.5 mg/kg twice, total 3.0 mg/kg, 4 hours
Protocol: A procedure based on that described by Lipman, W. (J. Pharm. Pharmacol., 21: 335 [1968]) was used to assess the influence of test compounds on gastric secretion. Rats of one sex weighing 150 to 200 g were randomly divided into groups of six animals each and fasted for 48 hours previous to the experiments, water being available ad libitum. The animals were anesthetized with ether, the abdomen opened through a midline incision, and the pylorus ligated. Test compounds were diluted from stock solution so as to administer a dose of 1.5 mg/kg in a volume equivalent to 1 ml/kg. Subcutaneous injections were applied immediately after surgery and again 2 hours later, so that a total dose of 3.0 mg/kg was administered. Dilutions were made with phosphate buffer (pH 7.38) as recommended by Lee et al. (Prostaglandins, 3: 29 [1973]) in order to insure adequate stability of drugs at the subcutaneous depot. Each compound was tested in one group of rats; an additional control group received only the vehicle.
Four hours after pyllric ligation the animals were killed with ether, the cardias ligated, and the stomachs removed. The volume of gastric secretion was measured and the contents centrifuged at 5000 rpm for 10 minutes. Total acid in the supernatant was titrated against a 0.1 N sodium hydroxide solution and the amount expressed in mEq.
Volume and total acid values of the treated group were compared with those of the controls […]. Antisecretory activity was scored according to the following scale: […]

[5] = system: rabbit aorta; assay: Cascade assay, rabbit aorta in vitro; assay type: cell-based; settings: rabbit aortic strip in vitro; 0.0001 to 100,000 ng; max = PGA2 response
[6] = system: rat uterus; assay: Effects on the rat uterus in vitro; assay type: cell-based; settings: 0.001 to 10 mcg/ml, ED50 relative to carbachol response

Compound: CCCC1([C@H](O)C/C=C/[C@H]2[C@H](O)CC(=O)[C@@H]2CCCCCCCO)CCC1 [TR 4984, 17,17-Propano-1,11α,16R-trihydroxyprost-13E-en-9-one]
- Cascade, Colon: activity value (ED50) [1]: 0 (ED50, ng >10000)
- Cascade, Stomache: activity value (ED50) [2]: 0 (ED50, ng >10000)
- Cascade, Rectum: activity value (ED50) [3]: 0 (ED50, ng >10000)
- Gastric Secretion: activity value (% decrease in acidity) [4]: 0 (% decrease in acidity <26)

Compound: CCCC(C)(C)C(O)C/C=C/[C@H]1[C@H](O)CC(=O)[C@@H]1CCCCCCC(=O)OC (single isomer, unassigned) [TR 4836, Methyl 11α, 16 R and S-dihydroxy-17, 17-dimethyl-9-oxoprost-13E-en-1-oate, reference compound]
- Cascade, Aorta: activity value (ED50) [5]: 0 (ED50, ng >10000)
- Cascade, Colon: activity value (ED50) [1]: 0 (ED50, ng >10000)
- Cascade, Stomache: activity value (ED50) [2]: 0 (ED50, ng >10000)
- Cascade, Rectum: activity value (ED50) [3]: 0 (ED50, ng >10000)
- Gastric Secretion: activity value (% decrease in acidity) [4]: 4 (% decrease in acidity 76-100)
- Rat Uterus: activity value (ED50) [6]: 0 (ED50 (mcg/ml) >10)

Compound: COC(=O)CCCCCC[C@H]1C(=O)C[C@@H](O)[C@@H]1/C=C/[C@@H]1CCC[C@H]1O [TR 4839, Methyl 15S, 19-cyclo-11α, 16-trans-dihydroxy-20-nor-9-oxoprost-13E-en-1-oate]
- Cascade, Aorta: activity value (ED50) [5]: 0 (ED50, ng >10000)
- Cascade, Colon: activity value (ED50) [1]: 0 (ED50, ng >10000)
- Cascade, Stomache: activity value (ED50) [2]: 0 (ED50, ng >10000)
- Cascade, Rectum: activity value (ED50) [3]: 0 (ED50, ng >10000)
- Gastric Secretion: activity value (% decrease in acidity) [4]: 1 (% decrease in acidity 26-50, not significant)
- Rat Uterus: activity value (ED50) [6]: 0 (ED50 (mcg/ml) >10)

Compound: O=C1C[C@@H](O)[C@H](/C=C/[C@@H]2CCC[C@H]2O)[C@H]1CCCCCCCO [TR 4844, 15, 19-cyclo-20-nor-1, 11α, 16R-trihydroxy-prost-13E-en-9-one]
- Cascade, Aorta: activity value (ED50) [5]: 0 (ED50, ng >10000)
- Cascade, Colon: activity value (ED50) [1]: 0 (ED50, ng >10000)
- Cascade, Stomache: activity value (ED50) [2]: 0 (ED50, ng >10000)
- Cascade, Rectum: activity value (ED50) [3]: 0 (ED50, ng >10000)
- Gastric Secretion: activity value (% decrease in acidity) [4]: 0 (% decrease in acidity <26)
- Rat Uterus: activity value (ED50) [6]: 0 (ED50 (mcg/ml) >10)

Compound: O=C1C[C@@H](O)[C@H](/C=C/CC2(O)CCC2)[C@H]1CCCCCCCO [TR 4753, 20-Nor-16, 19-cyclo-1, 11α, 16-trihydroxyprost-13E-en-9-one]
- Cascade, Aorta: activity value (ED50) [5]: 0 (ED50, ng >10000)
- Cascade, Colon: activity value (ED50) [1]: 0 (ED50, ng >10000)
- Cascade, Stomache: activity value (ED50) [2]: 0 (ED50, ng >10000)
- Cascade, Rectum: activity value (ED50) [3]: 0 (ED50, ng >10000)
- Gastric Secretion: activity value (% decrease in acidity) [4]: 0 (% decrease in acidity <26)
- Rat Uterus: activity value (ED50) [6]: 0 (ED50 (mcg/ml) >10)

Compound: O=C1C[C@@H](O)[C@H](/C=C/CC2(O)CC3CCCCC32)[C@H]1CCCCCCCO (stereo partly drawn) [TR 4804, 16, 18-Methano-17, 20-ethano-1, 11α, 16RS-trihydroxyprost-13E-en-9-one]
- Cascade, Aorta: activity value (ED50) [5]: 0 (ED50, ng >10000)
- Cascade, Colon: activity value (ED50) [1]: 0 (ED50, ng >10000)
- Cascade, Stomache: activity value (ED50) [2]: 0 (ED50, ng >10000)
- Cascade, Rectum: activity value (ED50) [3]: 0 (ED50, ng >10000)
- Gastric Secretion: activity value (% decrease in acidity) [4]: 0 (% decrease in acidity <26)
- Rat Uterus: activity value (ED50) [6]: 0 (ED50 (mcg/ml) >10)

Compound: O=C1C[C@@H](O)[C@H](/C=C/[C@H]2CCC[C@@H]2O)[C@H]1CCCCCCCO [TR 4846, 15, 19-cyclo-20-nor-1, 11α, 16S-trihydroxy-prost-13E-en-9-one]
- Cascade, Aorta: activity value (ED50) [5]: 0 (ED50, ng >10000)
- Cascade, Colon: activity value (ED50) [1]: 0 (ED50, ng >10000)
- Cascade, Stomache: activity value (ED50) [2]: 0 (ED50, ng >10000)
- Cascade, Rectum: activity value (ED50) [3]: 0 (ED50, ng >10000)
- Gastric Secretion: activity value (% decrease in acidity) [4]: 1 (% decrease in acidity 26-50, not significant)
- Rat Uterus: activity value (ED50) [6]: 0 (ED50 (mcg/ml) >10)

Compound: O=C1C=C[C@H](/C=C/CC2(O)CC3CCCCC32)[C@H]1CCCCCCCO (some centres unmarked) [TR 4806, 16, 18-Methano-17, 20-ethano-1, 16RS-dihydroxyprosta-10, 13E-dien-9-one]
- Cascade, Aorta: activity value (ED50) [5]: 0 (ED50, ng >10000)
- Cascade, Colon: activity value (ED50) [1]: 0 (ED50, ng >10000)
- Cascade, Stomache: activity value (ED50) [2]: 0 (ED50, ng >10000)
- Cascade, Rectum: activity value (ED50) [3]: 0 (ED50, ng >10000)
- Gastric Secretion: activity value (% decrease in acidity) [4]: 0 (% decrease in acidity <26)
- Rat Uterus: activity value (ED50) [6]: 0 (ED50 (mcg/ml) >10)

Compound: COC(=O)CCCCCC[C@H]1C(=O)C=C[C@@H]1/C=C/CC1(O)CC2CCCCC21 (some centres unmarked) [TR 4807, Methyl 17, 20-ethano-16RS-hydroxy-16, 18-methano-9-oxoprosta-10, 13E-dien-1-oate]
- Cascade, Aorta: activity value (ED50) [5]: 0 (ED50, ng >10000)
- Cascade, Colon: activity value (ED50) [1]: 0 (ED50, ng >10000)
- Cascade, Stomache: activity value (ED50) [2]: 0 (ED50, ng >10000)
- Cascade, Rectum: activity value (ED50) [3]: 0 (ED50, ng >10000)
- Gastric Secretion: activity value (% decrease in acidity) [4]: 0 (% decrease in acidity <26)
- Rat Uterus: activity value (ED50) [6]: 0 (ED50 (mcg/ml) >10)

Compound: CC1(C(O)C/C=C/[C@H]2[C@H](O)CC(=O)[C@@H]2CCCCCCCO)CCCC1 (single isomer, unassigned) [TR 4982, 17, 20-methano-17-methyl-1, 11α, 16R and S-trihydroxyprost-13E-en-9-one]
- Gastric Secretion: activity value (% decrease in acidity) [4]: 1 (% decrease in acidity 26-50, not significant)

Compound: O=C1C[C@@H](O)[C@H](/C=C/CC2(O)CC3CCCC32)[C@H]1CCCCCCCO (stereo partly drawn) [TR 4799, 16, 18-Methano-17, 20-methano-1, 11α, 16RS-trihydroxyprost-13E-en-9-one]
- Cascade, Aorta: activity value (ED50) [5]: 0 (ED50, ng >10000)
- Cascade, Colon: activity value (ED50) [1]: 0 (ED50, ng >10000)
- Cascade, Stomache: activity value (ED50) [2]: 0 (ED50, ng >10000)
- Cascade, Rectum: activity value (ED50) [3]: 0 (ED50, ng >10000)
- Gastric Secretion: activity value (% decrease in acidity) [4]: 0 (% decrease in acidity <26)

Compound: CCCC1(C(O)C/C=C/[C@H]2[C@H](O)CC(=O)[C@@H]2CCCCCCC(=O)OC)CCC1 (stereo partly drawn) [TR 4979, Methyl 11α, 16RS-dihydroxy-9-oxo-17, 17-propanoprost-13E-en-1-oate]
- Gastric Secretion: activity value (% decrease in acidity) [4]: 0 (% decrease in acidity <26)

Compound: CCCC1([C@@H](O)C/C=C/[C@H]2[C@H](O)CC(=O)[C@@H]2CCCCCCCO)CCC1 [TR 4985, 17,17-Propano-1,11α,16S-trihydroxyprost-13E-en-9-one]
- Cascade, Colon: activity value (ED50) [1]: 0 (ED50, ng >10000)
- Cascade, Stomache: activity value (ED50) [2]: 0 (ED50, ng >10000)
- Cascade, Rectum: activity value (ED50) [3]: 0 (ED50, ng >10000)
- Gastric Secretion: activity value (% decrease in acidity) [4]: 0 (% decrease in acidity <26)

Compound: CCCC1(C(O)C/C=C/[C@H]2[C@H](O)CC(=O)[C@@H]2CCCCCCC(=O)OC)CCC1 (single isomer, unassigned) [TR 4978, Methyl 11α, 16R and S-dihydroxy-17, 17-propano-9-oxoprost-13E-ene-1-oate]
- Gastric Secretion: activity value (% decrease in acidity) [4]: 0 (% decrease in acidity <26)

Compound: COC(=O)CCCCCC[C@H]1C(=O)C[C@@H](O)[C@@H]1/C=C/C[C@H](O)C1(C)CCCC1 [TR 4981, Methyl 11α, 16S-dihydroxy-17,20-methano-17-methyl-9-oxoprost-13E-en-1-oate]
- Cascade, Colon: activity value (ED50) [1]: 0 (ED50, ng >10000)
- Cascade, Stomache: activity value (ED50) [2]: 0 (ED50, ng >10000)
- Cascade, Rectum: activity value (ED50) [3]: 0 (ED50, ng >10000)
- Gastric Secretion: activity value (% decrease in acidity) [4]: 0 (% decrease in acidity <26)
